In PubChem BioAssay AID686979 (National Center for Advancing Translational Sciences (NCATS), 2013):
The whole screen tested about 420,000 compounds, of which about 50,000 (12%) were called active. The inconclusive results got no clear call from the source; some entries with a clear call stand among them for comparison. The call rests on the fitted dose curve; in most records, active means well fitted inhibition curve with a large enough effect; inconclusive means small, poorly fitted or top-dose-only effect; inactive means flat fitted curve, though single readings scatter. No potency is given beside an inconclusive call; the fits are too rough.
On the % scale 0 is the no-effect control and ±100 the full control effect; potency means the concentration at half of the fitted maximal effect; tags describe the fitted curve by direction and shape.

Experiment: qHTS for Inhibitors of human tyrosyl-DNA phosphodiesterase 1 (TDP1): qHTS in cells in presence of CPT; further: nearly all actives have a fitted effect of over 55% in size
Settings: chicken DT40 Tdp1-/-;hTDP1 cells + 20 nM CPT, ATP luminescence, 48 h; activity change, negative = growth inhibition: at 46.2 µM (top of the series)
In short: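 Cell growth measured by CellTiter-Glo luminescence after a minimum 48 h, 37 C compound exposure with 20 nM CPT in Tdp1-knockout DT40 cells stably expressing hTDP1, seeded 400/well; qHTS titration format.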
With CCOCCCn1c(=N)c(C(N)=S)cc2c(=O)n3cccc(C)c3nc21 the Potency was inconclusive [inhibitor, single point]. For O=C(Nc1ccc(F)cc1)C1CCCN1S(=O)(=O)c1cccc2nsnc12 (stereo not given), the Potency was “inactive”. With Cc1ccc(CN2CC(N3CCC(Cc4ccccc4)CC3)CS2(=O)=O)cc1 (stereo not given) the Potency was inconclusive [inhibitor, single point]. For O=c1/c(=C/c2ccc(O)c([N+](=O)[O-])c2)sc2nc3ccccc3n12, the Potency was “inactive”. For O=C(CN1CCN(Cc2ccc(Cl)cc2)CC1)N1CCc2ccccc21, the Potency was inconclusive [inhibitor, single point]. With CNc1nc(N/N=C/c2cc([N+](=O)[O-])ccc2F)nc(Nc2ccccc2)n1 the Potency was active: 13 µM. In the case of CCCNC(=O)c1cc(C2CCCCN2C(=O)c2ccc3ccccc3c2)on1 (stereo not given), the Potency was inconclusive [inhibitor, single point]. With CON(C)C(=O)CC1(CN(Cc2ccccc2)C(=O)OC(C)(C)C)CCCCC1 the Potency was active: 18.4 µM. For CCOC(=O)c1c(NC(=O)CSc2nnnn2CC)sc(C)c1C, the Potency was inconclusive [inhibitor, partial curve]. In the case of O=C(CN1CCCCC1)Nc1ccccc1Oc1ccccc1, the Potency was “inactive”. In the case of CC(C)C(OC(=O)c1ccccc1)c1nccc2ccccc12 (stereo not given), the Potency was inconclusive [inhibitor, single point]. In the case of O=C(Cc1ccc(NC(=O)C2CCN(C(=O)C3CCC3)CC2)cc1)Nc1cccc(C(=O)N2CCCCC2)c1, the Potency was “inactive”. For O=C(C1CC1)N1CCc2cc(Br)cc(S(=O)(=O)N3CCOCC3)c21, the Potency was inconclusive [inhibitor, single point]. With COC(=O)c1cc(-c2cccc(OC)c2)n[nH]1 the Potency was “inactive”. With CCCCNC(=O)CCn1c(=O)c2ccccc2n(CC(=O)NCCc2ccc(OC)c(OC)c2)c1=O the Potency was “inactive”. With CN1CCN(c2ccc(NC(=S)NC(=O)c3cccc4c(Cl)cccc34)cc2)CC1 the Potency was active: 16.4 µM. With O=C(CN1C(=O)/C(=C2\SC(=S)N(C3CCS(=O)(=O)C3)C2=O)c2ccccc21)Nc1ccccc1 (stereo not given) the Potency was inconclusive [inhibitor, full curve]. For O=C(NCCc1ccccc1)c1ccc2c(c1)OCO2, the Potency was “inactive”. In the case of CCC1CCCCN1CCCNC(=O)CN1C(=O)COc2ccc(S(=O)(=O)N3CCOCC3)cc21 (stereo not given), the Potency was “inactive”. In the case of COc1ccc(-c2noc3c2-c2nc(-c4ccccc4)sc2CC3)cc1, the Potency was “inactive”. With Cc1cccc(C(=O)N[C@H](C(=O)Nc2nc3ccc(S(C)(=O)=O)cc3s2)C(C)C)c1 the Potency was inconclusive [inhibitor, single point]. In the case of COc1ccc(-c2[nH]ncc2-c2csc(C)n2)c(O)c1, the activity change, negative = growth inhibition was inconclusive: -30.5% [inhibitor]. For O=C(CCC(C(=O)c1ccccc1)c1ccccc1)c1ccccc1 (stereo not given), the Potency was inconclusive [inhibitor, single point]. For CCN1CCN(CC(=O)n2c3c(c4ccccc42)CC(C)CC3)CC1 (stereo not given), the Potency was inconclusive [inhibitor, single point]. With O=C(Nc1ccc(Cl)cc1)Nc1ccc(N2CCOCC2)cc1 the Potency was inconclusive [inhibitor, single point]. With O=S(=O)(Nc1nc2ccccc2s1)c1ccc(Br)s1 the Potency was inconclusive [inhibitor, partial curve, poor fit]. In the case of Cc1ccccc1S(=O)(=O)Nc1ncc(C(F)(F)F)cc1Cl, the Potency was “inactive”. With Cc1ccc(NC(=O)Cn2c(=O)n(Cc3nc(C)no3)c(=O)c3cc4c(cc32)OCO4)c(Cl)c1 the Potency was “inactive”. In the case of COc1ccc(N2CC(NC(=O)c3ccc4ccccc4c3)CC2=O)cc1OC (stereo not given), the Potency was inconclusive [inhibitor, single point]. For COc1ccc(C2CC(c3ccccc3)=NN2c2ccc(S(N)(=O)=O)cc2)cc1OC (stereo not given), the Potency was inconclusive [inhibitor, partial curve]. In the case of O=C(CNc1cccc(S(=O)(=O)N2CCCCCC2)c1)Nc1cccc([N+](=O)[O-])c1, the Potency was inconclusive [inhibitor, single point]. With OCCNc1nc(SCc2ccccc2)nc2sc3c(c12)CCC3 the Potency was inconclusive [inhibitor, partial curve, poor fit]. For O=Cc1c(-c2ccccc2)cc2oc3ccccc3cc1-2, the Potency was inconclusive [inhibitor, single point]. For CC(C)(C)c1ccc(S(=O)(=O)N2CCN(C(=O)C3CCC3)CC2)cc1, the Potency was active: 8.2 µM. For NC(CSC(c1ccccc1)(c1ccccc1)c1cccc2ccccc12)C(=O)O (stereo not given), the Potency was inconclusive [inhibitor, single point]. For Cc1ccc(S(=O)(=O)c2nc(-c3ccco3)oc2SCC(=O)Nc2ccc(F)cc2)cc1, the Potency was inconclusive [inhibitor, single point]. For O=C(c1ccccc1)c1ccc2nc(-c3ccc(NC(=O)c4ccccc4Br)cc3)[nH]c2c1, the Potency was inconclusive [inhibitor, single point]. For COc1cccc(C(=O)N2CCCC(c3nc(-c4cccs4)no3)C2)c1 (stereo not given), the Potency was inconclusive [inhibitor, single point]. With CCN(CC(=O)Nc1ccc(NC(C)=O)cc1)c1ccc(C(F)(F)F)cn1 the Potency was “inactive”. For CCOc1ccc2nc(NC(=O)C3CCN(C(=O)c4ccco4)CC3)sc2c1, the Potency was inconclusive [inhibitor, single point]. In the case of Cc1cccc(C)c1NC(=O)C1C(c2ccc3c(c2)OCO3)=Nc2ccccc2N1C(=O)c1cccc(C(F)(F)F)c1 (stereo not given), the Potency was active: 7.31 µM. In the case of CC1Cc2cc(S(=O)(=O)CCC(=O)Nc3ccc(F)c(Cl)c3)ccc2N1C(=O)C1CC1 (stereo not given), the Potency was active: 10.3 µM. In the case of Cc1ccc(NC(=O)CSCC(=O)N2CCN(C(=O)c3ccco3)CC2)cc1, the Potency was “inactive”. With O=C1c2[nH]nc(-c3ccc(Br)cc3)c2C(c2cccc(O)c2)N1c1ccc(Cl)cc1 (stereo not given) the Potency was inconclusive [inhibitor, single point]. With COc1ccc(S(=O)(=O)N2CCN(C(=O)C3COc4ccccc4O3)CC2)cc1 (stereo not given) the Potency was inconclusive [inhibitor, single point]. With CC(CC(=O)N(C)CC(=O)Nc1ccc(N2CCOCC2)cc1)c1ccccc1 (stereo not given) the Potency was “inactive”. With O=C(O)c1ccc(Nc2nc(-c3cc4ccccc4oc3=O)cs2)cc1O the Potency was inconclusive [inhibitor, single point]. In the case of Cn1c(SCC(N)=O)nnc1-c1ccc(C(C)(C)C)cc1, the Potency was “inactive”. In the case of O=C(C[C@@H]1C/C=C\C[C@H](NC(=O)OCC2c3ccccc3-c3ccccc32)C(=O)OC[C@@H]2CCCN2C1=O)N[C@@H](CO)Cc1ccccc1, the Potency was active: 18.4 µM. For CCOC(=O)Cc1csc(NC(=O)/C=C\c2ccccc2)n1, the Potency was inconclusive [inhibitor, full curve, poor fit]. In the case of COc1ccccc1C(=O)NC(=S)/C=C1/N(C)c2ccccc2C1(C)C, the Potency was inconclusive [inhibitor, partial curve, poor fit]. With Cc1ccc2scc(N3CCN(c4ccc(F)cc4)CC3)c(=O)c2c1 the Potency was inconclusive [inhibitor, single point]. In the case of Cc1cc(=O)c(C(=O)NCCCc2ccncc2)c2n1-c1ccccc1SC(c1cccs1)C2 (stereo not given), the Potency was inconclusive [inhibitor, single point]. For O=C(COc1ccc([N+](=O)[O-])cc1)Nc1ccc(CN2CCOCC2)cc1, the Potency was inconclusive [inhibitor, single point]. For CCc1nc(SC)[nH]c(=O)c1C, the Potency was “inactive”. In the case of O=C(NNc1ccccc1)Nc1ccccc1F, the Potency was inconclusive [inhibitor, single point]. For S=c1[nH]nc(-c2ccc(Cl)cc2Cl)n1-c1ccc(Cl)cc1, the Potency was “inactive”. With O=C(CN1C(=O)/C(=C\c2cccc(Br)c2)Oc2ccccc21)NCCCN1CCOCC1 the Potency was inconclusive [inhibitor, single point]. In the case of CNC(=O)[C@@H]1C[C@H](NC2CCCCCCC2)CN1Cc1cccc(OC)c1OC, the Potency was inconclusive [inhibitor, full curve, poor fit]. For CCCn1nc2cc(C(=O)NCc3ccc(OC(F)(F)F)cc3)ccc2c1OCC, the Potency was inconclusive [inhibitor, single point]. For Cc1ccc(NC(=O)CCOc2ccccc2C)cc1C, the Potency was “inactive”. In the case of COc1ccc2c(c1)sc1ncc(C(=O)NCc3cccc(Cl)c3)c(=O)n12, the Potency was “inactive”. With Cc1ccc(-c2nnc3ccc(SCC(=O)NCc4ccco4)nn23)cc1 the Potency was inconclusive [inhibitor, full curve, poor fit]. In the case of Cn1c(=O)n(CC(=O)N2CCN(c3nnc(-c4ccccc4)c4ccccc34)CC2)c2ccccc21, the Potency was inconclusive [inhibitor, partial curve]. For O=S(=O)(Nc1ccc2cn[nH]c2c1)c1ccc(Cl)cc1, the Potency was “inactive”. With O=C(NCc1ccc(Cl)cc1)c1cnc2sc(N3CCCC3)nn2c1=O the activity change, negative = growth inhibition was inconclusive: -20.4% [inhibitor]. With Cc1cccc(Nc2ccccc2C(=O)NCc2ccco2)c1C the Potency was inconclusive [inhibitor, single point]. With COc1ccc(Cl)cc1NC(=O)CN(c1cccc(C)c1C)S(=O)(=O)c1ccccc1 the Potency was active: 23.1 µM. In the case of CC(=O)Nc1cc(-c2cccc(N)c2)cn2c(-c3ccccc3)cnc12, the Potency was active: 18.4 µM. For Cc1nc(Nc2ccc(Cl)cc2)c2oc3ccccc3c2n1, the Potency was inconclusive [inhibitor, single point].
